# Results published in PMC8625052, “The Antiarrhythmic Activity of Novel Pyrrolidin-2-one Derivative S-75 in Adrenaline-Induced Arrhythmia” (Pharmaceuticals, 2021).
# Test system: voltage-gated sodium channels (site 2)
Structure (SMILES),"affinity toward sodium channel, times lower than veratridine (vs reference veratridine)","IC50 (rat cortex tissue, [3H]-batrachotoxin, read-out: Na+ (IC50 [μM]))"
"Cl.O=C1CCCN1CCCCN1CCN(c2ccccc2Cl)CC1 [S-75, 1-(4-(4-(2-chlorophenyl)piperazin-1-yl)butyl)pyrrolidin-2-one hydrochloride]",about 3.5 times,–
"COc1ccc(C(=O)O[C@H]2CC[C@@]3(C)[C@@H]4CC[C@H]5[C@]6(O)C[C@H](O)[C@@]7(O)[C@@H](CN8C[C@@H](C)CC[C@H]8[C@@]7(C)O)[C@]6(O)C[C@@]53O[C@]24O)cc1OC [Veratridine, reference compound]",–,16.7 µM
